# Data reported in the supplement of paper PMC8728848.
# This is one part of the list.
# Tests used:
# Assay in all cases: glycan array binding signal (z-score within array); higher = stronger binding
# Settings in all cases: glycan notation: IUPAC condensed, linker removed
# [1] = target: Man(a1-2)Man(a1-3)[Man(a1-2)Man(a1-6)]Man
# Procedure, shortened: (§1)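 Arrays were curated from the Consortium for Functional Glycomics database, 3228 in total, and kept only where the protein sequence was available. Binding is expressed as a within-array Z-score. This score was averaged across arrays of the same protein sequence at different concentrations or buffers and across linkers, and negative values can be read as non-binding.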
# [2] = target: Man(a1-2)Man(a1-3)[Man(a1-2)Man(a1-6)]Man(a1-6)[Man(a1-2)Man(a1-2)Man(a1-3)]Man
# Procedure, shortened: as §1
# [3] = target: Man(a1-2)Man(a1-3)[Man(a1-2)Man(a1-6)]Man(a1-6)[Man(a1-2)Man(a1-2)Man(a1-3)]Man(b1-4)GlcNAc(b1-4)GlcNAc
# Procedure, shortened: as §1
# [4] = target: Man(a1-2)Man(a1-3)[Man(a1-6)]Man(a1-6)[Man(a1-2)Man(a1-3)]Man(b1-4)GlcNAc(b1-4)GlcNAc
# Procedure, shortened: as §1
# [5] = target: Man(a1-2)Man(a1-6)[Man(a1-3)]Man(a1-6)[Man(a1-2)Man(a1-2)Man(a1-3)]Man
# Procedure, shortened: as §1
# [6] = target: Man(a1-2)Man(a1-6)[Man(a1-3)]Man(a1-6)[Man(a1-2)Man(a1-2)Man(a1-3)]Man(b1-4)GlcNAc(b1-4)GlcNAc
# Procedure, shortened: as §1
# Man(a1-3)[Man(a1-6)]Man = target: Man(a1-3)[Man(a1-6)]Man
# Procedure, shortened: as §1
# [7] = target: Man(a1-3)[Man(a1-6)]Man(a1-6)[Man(a1-2)Man(a1-3)]Man(b1-4)GlcNAc(b1-4)GlcNAc
# Procedure, shortened: as §1
# [8] = target: Man(a1-3)[Man(a1-6)]Man(a1-6)[Man(a1-3)]Man
# Procedure, shortened: as §1
# [9] = target: Man(a1-3)[Man(a1-6)]Man(a1-6)[Man(a1-3)]Man(b1-4)GlcNAc(b1-4)GlcNAc
# Procedure, shortened: as §1
# [10] = target: Man(a1-3)[Man(a1-6)]Man(b1-4)GlcNAc(b1-4)GlcNAc
# Procedure, shortened: as §1
# [11] = target: Man(a1-3)[Man(a1-6)]Man(b1-4)GlcNAc(b1-4)[Fuc(a1-6)]GlcNAc
# Procedure, shortened: as §1
# Man(a1-6)Man = target: Man(a1-6)Man
# Procedure, shortened: as §1
# Man(b1-4)GlcNAc = target: Man(b1-4)GlcNAc
# Procedure, shortened: as §1
# MurNAc(b1-4)GlcNAc = target: MurNAc(b1-4)GlcNAc
# Procedure, shortened: as §1
# Neu5Ac(a2-3)Gal = target: Neu5Ac(a2-3)Gal
# Procedure, shortened: as §1
# [12] = target: Neu5Ac(a2-3)Gal(b1-3)GalNAc
# Procedure, shortened: as §1
# [13] = target: Neu5Ac(a2-3)Gal(b1-3)GalNAc(b1-3)Gal(a1-4)Gal(b1-4)Glc
# Procedure, shortened: as §1
# [14] = target: Neu5Ac(a2-3)Gal(b1-3)GalNAc(b1-4)[Neu5Ac(a2-3)]Gal(b1-4)Glc
# Procedure, shortened: as §1
# [15] = target: Neu5Ac(a2-3)Gal(b1-3)GalNAc(b1-4)[Neu5Ac(a2-8)Neu5Ac(a2-3)]Gal(b1-4)Glc
# Procedure, shortened: as §1
# [16] = target: Neu5Ac(a2-3)Gal(b1-3)GalNAc6S
# Procedure, shortened: as §1
# [17] = target: Neu5Ac(a2-3)Gal(b1-3)GlcNAc
# Procedure, shortened: as §1
# [18] = target: Neu5Ac(a2-3)Gal(b1-3)GlcNAc(b1-2)Man
# Procedure, shortened: as §1
# [19] = target: Neu5Ac(a2-3)Gal(b1-3)GlcNAc(b1-2)Man(a1-3)[GlcNAc(b1-4)][Neu5Ac(a2-3)Gal(b1-3)GlcNAc(b1-2)Man(a1-6)]Man(b1-4)GlcNAc(b1-4)GlcNAc
# Procedure, shortened: as §1
# [20] = target: Neu5Ac(a2-3)Gal(b1-3)GlcNAc(b1-2)Man(a1-3)[Neu5Ac(a2-3)Gal(b1-3)GlcNAc(b1-2)Man(a1-6)]Man(b1-4)GlcNAc(b1-4)GlcNAc
# Procedure, shortened: as §1
# [21] = target: Neu5Ac(a2-3)Gal(b1-3)GlcNAc(b1-2)[Neu5Ac(a2-3)Gal(b1-3)GlcNAc(b1-4)]Man(a1-6)[Neu5Ac(a2-3)Gal(b1-3)GlcNAc(b1-2)Man(a1-3)]Man(b1-4)GlcNAc(b1-4)GlcNAc
# Procedure, shortened: as §1
# [22] = target: Neu5Ac(a2-3)Gal(b1-3)GlcNAc(b1-3)Gal(b1-3)GlcNAc
# Procedure, shortened: as §1
# [23] = target: Neu5Ac(a2-3)Gal(b1-3)GlcNAc(b1-3)Gal(b1-4)GlcNAc
# Procedure, shortened: as §1
# [24] = target: Neu5Ac(a2-3)Gal(b1-3)GlcNAc(b1-3)GalNAc
# Procedure, shortened: as §1
# [25] = target: Neu5Ac(a2-3)Gal(b1-3)GlcNAc(b1-4)Gal(b1-4)Glc
# Procedure, shortened: as §1
# [26] = target: Neu5Ac(a2-3)Gal(b1-3)GlcNAc(b1-6)GalNAc
# Procedure, shortened: as §1
# [27] = target: Neu5Ac(a2-3)Gal(b1-3)GlcNAc6S
# Procedure, shortened: as §1
# [28] = target: Neu5Ac(a2-3)Gal(b1-3)[Fuc(a1-4)]GlcNAc
# Procedure, shortened: as §1
# [29] = target: Neu5Ac(a2-3)Gal(b1-3)[Fuc(a1-4)]GlcNAc(b1-3)Gal(b1-3)[Fuc(a1-4)]GlcNAc
# Procedure, shortened: as §1
# [30] = target: Neu5Ac(a2-3)Gal(b1-3)[Fuc(a1-4)]GlcNAc(b1-3)Gal(b1-4)[Fuc(a1-3)]GlcNAc
# Procedure, shortened: as §1
# [31] = target: Neu5Ac(a2-3)Gal(b1-3)[GlcNAc(b1-6)]GalNAc
# Procedure, shortened: as §1
# [32] = target: Neu5Ac(a2-3)Gal(b1-3)[Neu5Ac(a2-6)]GalNAc
# Procedure, shortened: as §1
binder,measurement,setting,value
"Apa (Mycobacterium tuberculosis), Rv1860 (protein) MHQVDPNLTRRKGRLAALAIAAMASASLVTVAVPATANADPEPAPPVPTTAASPPSTAAAPPAPATPVAPPPPAAANTPNAQPGDPNAAPPPADPNAPPPPVIAPNAPQPVRIDNPVGGFSFALPAGWVESDAAHFDYGSALLSKTTGDPPFPGQPPPVANDTRIVLGRLDQKLYASAEATDSKAAARLGSDMGEFYMPYPGTRINQETVSLDANGVSGSASYYEVKFSDPSKPNGQIWTGVIGSPAANAPDAGPPQRWFVVWLGTANNPVDKGAAKALAESIRPLVAPPPAPAPAPAEPAPAPAPAGEVAPTPTTPTPQRTLPA",glycan array binding signal (z-score),[1],-0.176
same,glycan array binding signal (z-score),[2],-0.418
same,glycan array binding signal (z-score),[3],0.314
same,glycan array binding signal (z-score),[4],-0.154
same,glycan array binding signal (z-score),[5],0.102
same,glycan array binding signal (z-score),[6],0.36
same,glycan array binding signal (z-score),Man(a1-3)[Man(a1-6)]Man,-0.457
same,glycan array binding signal (z-score),[7],0.221
same,glycan array binding signal (z-score),[8],0.665
same,glycan array binding signal (z-score),[9],-0.102
same,glycan array binding signal (z-score),[10],-0.187
same,glycan array binding signal (z-score),[11],0.243
same,glycan array binding signal (z-score),Man(a1-6)Man,-0.69
same,glycan array binding signal (z-score),Man(b1-4)GlcNAc,-0.741
same,glycan array binding signal (z-score),MurNAc(b1-4)GlcNAc,-0.3
same,glycan array binding signal (z-score),Neu5Ac(a2-3)Gal,-0.445
same,glycan array binding signal (z-score),[12],-0.28
same,glycan array binding signal (z-score),[13],0.043
same,glycan array binding signal (z-score),[14],0.12
same,glycan array binding signal (z-score),[15],0.05
same,glycan array binding signal (z-score),[16],-0.205
same,glycan array binding signal (z-score),[17],-0.392
same,glycan array binding signal (z-score),[18],-0.346
same,glycan array binding signal (z-score),[19],0.022
same,glycan array binding signal (z-score),[20],0.256
same,glycan array binding signal (z-score),[21],0.309
same,glycan array binding signal (z-score),[22],-0.394
same,glycan array binding signal (z-score),[23],-0.493
same,glycan array binding signal (z-score),[24],-0.423
same,glycan array binding signal (z-score),[25],0.31
same,glycan array binding signal (z-score),[26],-0.143
same,glycan array binding signal (z-score),[27],1.68
same,glycan array binding signal (z-score),[28],-0.536
same,glycan array binding signal (z-score),[29],0.278
same,glycan array binding signal (z-score),[30],-0.139
same,glycan array binding signal (z-score),[31],-0.268
same,glycan array binding signal (z-score),[32],-0.234
